In the supplement of paper PMC10338343:
± gives the standard deviation. The entries are a selection whose mix differs from that of the whole data set.

Test system: MIWI (PIWIL1) piRISC loaded with piRNA #1 (30 nt)
Experiment: pre-steady-state target cleavage rate (min^-1); MIWI and MILI are mouse PIWI proteins and EfPiwi is from a freshwater sponge; tags in brackets are library labels; higher = faster piRNA-guided slicing of the target
Conditions: guide: piRNA #1 5'p-UGAGGUAGUAGGUUGUAUAGUAUCCAGAGG; auxiliary factor: 500 nM mouse GTSF1
How it was run: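 The pre-steady-state cleavage rate was calculated from a burst-and-steady-state fit. Data came from Cleave-'n-Seq, in which […] transcribed, DNA-blocked target RNA library was mixed with 1 nM active affinity-purified piRISC carrying one synthetic guide, with or without 500 nM GTSF1 partner protein, in HEPES–potassium acetate buffer at 33 °C for 0–8 or 0–960 min. Uncleaved targets were sequenced and normalised to depth and to weakly complementary targets, three trials were pooled, and k3 was capped at 0.0001 min^-1.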
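Also: 1 nM active piRISC with 0.1 nM target library at 33 °C single turnover.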

Row | Sequence | pre-steady-state target cleavage rate
1 | GGAGACGAUACUAUACAACCUAGAACCUCA | 0.283 ± 0.049
2 | GGAGACCUAUCUAUAGAAGCUACUACCUCA | 0.175 ± 0.024
3 | GGAGACCAUACUAUACAAUCUACUACCUCA | 0.404 ± 0.024
4 | GCUCUGGAUACUAUACAAGCUACUACCACA | 1.45 ± 0.065
5 | CCUCUCGAUACUAUACAACCUACUAGCUCA | 1.46 ± 0.087
6 | GGAGAGGAUACUAUACAACCUACUUCCACA | 0.0106 ± 0.0048
7 | GGAGACCUUACUAUACAUCCUACUAGCUCA | 0.433 ± 0.041
8 | GGAGAGGAUACUAUACAACCUGACUACCUCA | 0.00377 ± 0.0021
9 | GGAGUGGUUACUAUACAACCUACUACCUCA | 1.62 ± 0.087
10 | GGACUGGAUACUAUAAAACCUACUACCUCA | 1.66 ± 0.13
11 | GGAGACCUAACUACUACAACCUACUACCUCA | 0.205 ± 0.042
12 | GCUCUGCAUACUAUACAACCUUCUACCUCA | 0.65 ± 0.031
13 | CCUCUGGAUACUAUACAACCUACUACGAGA | 0.393 ± 0.08
14 | GGAGAGGAUAGUAUACAACCUUCUACCUCA | 0.221 ± 0.018
15 | CCUCUGGAUACUGAUACAACCUACUACCUCA | 1.52 ± 0.089
16 | GGUCUGGAUAGUAUACAACCUACUACCACA | 0.341 ± 0.035
